Results as given in a collection of fitness landscapes (doi:10.1016/j.celrep.2020.107928).
The full ranking holds about 81,000 sequences; the median of “one-hybrid fitness for binding NBS DNA” is about -0.1, and the highest 2% start at about 0.36. This is one part of the list.

B1: Caulobacter ParB omega fusion; a variant is named by its letters at X, in order, B8GW30 (parent)
chain: MESVVVGEPGMSEGRRGLGRGLSALLGEVDAAPAQAPGEQLGGSREAPIEILQRNPDQPRRTFREEDLEDLSNSIREKGVLQPILVRPSPDTAGEYQIVAGERAWRAAQRAGLKTVPIMVRELDDLAVLEIGIIENVQRADLNVLEEALSYKVLMEKFERTQENIAQTIGKSXSHVANXMRLLXLPDEVQSYLVSGELTAXHARAIAAAADPVALAKQIIEGGLSVRETEALARKAPNLSAGKSKGGRPPRVKDTDTQALESDLSSVLGLDVSIDHRGSTGTLTITYATLEQLDDLCNRLTRGI

Variants of: B1
Assay: one-hybrid fitness for binding NBS DNA (the Noc-binding site; scaled: cognate 1, non-cognate 0); higher = stronger binding
Conditions: with NBS DNA site
Method in brief: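 The reporter was HIS3, with the binding site 19 bp from the promoter, in E. coli USO used for bacterial one-hybrid selection of Caulobacter ParB libraries with four specificity codons randomised. Growth was on M9 lacking histidine, with 0.1 mM IPTG and 5 mM 3-AT, for 48 hours at 37°C. Illumina sequencing covered plasmids before and after selection; three replicate libraries were pooled and variants with under 10 reads dropped. A fitness score is the log change in variant-to-wild-type read ratio, rescaled to the cognate and non-cognate references.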
For AMDS, the “one-hybrid fitness for binding NBS DNA” value was ≤ 0.2. For STHM, the “one-hybrid fitness for binding NBS DNA” value was ≤ 0.2. With GVPC the “one-hybrid fitness for binding NBS DNA” value was ≤ 0.2. With VIVV the “one-hybrid fitness for binding NBS DNA” value was ≤ 0.2. For MQAA, the “one-hybrid fitness for binding NBS DNA” value was ≤ 0.2. With KYKW the “one-hybrid fitness for binding NBS DNA” value was ≤ 0.2. With QISP the “one-hybrid fitness for binding NBS DNA” value was ≤ 0.2. With MMRN the “one-hybrid fitness for binding NBS DNA” value was ≤ 0.2. In the case of QFSG, the “one-hybrid fitness for binding NBS DNA” value is reported as ≤ 0.2. With WRFT the “one-hybrid fitness for binding NBS DNA” value was ≤ 0.2. In the case of CMMS, the “one-hybrid fitness for binding NBS DNA” value is reported as ≤ 0.2. For EPKT, the “one-hybrid fitness for binding NBS DNA” value was ≤ 0.2. For QIGV, the “one-hybrid fitness for binding NBS DNA” value was ≤ 0.2. TKQG was tested, and the “one-hybrid fitness for binding NBS DNA” value was ≤ 0.2. QTLY was tested, and the “one-hybrid fitness for binding NBS DNA” value was ≤ 0.2. For EARE, the “one-hybrid fitness for binding NBS DNA” value was ≤ 0.2. NEEV was tested, and the “one-hybrid fitness for binding NBS DNA” value was ≤ 0.2. For YFTS, the “one-hybrid fitness for binding NBS DNA” value was ≤ 0.2. With LNLG the “one-hybrid fitness for binding NBS DNA” value was ≤ 0.2. For IVHC, the “one-hybrid fitness for binding NBS DNA” value was ≤ 0.2. For RNHS, the “one-hybrid fitness for binding NBS DNA” value was 0.238. For NDCV, the “one-hybrid fitness for binding NBS DNA” value was ≤ 0.2. In the case of TDRS, the “one-hybrid fitness for binding NBS DNA” value is reported as ≤ 0.2. LWHR was tested, and the “one-hybrid fitness for binding NBS DNA” value was ≤ 0.2. With YFFT the “one-hybrid fitness for binding NBS DNA” value was ≤ 0.2. For NQAM, the “one-hybrid fitness for binding NBS DNA” value was ≤ 0.2. For PNNR, the “one-hybrid fitness for binding NBS DNA” value was ≤ 0.2. In the case of RRFE, the “one-hybrid fitness for binding NBS DNA” value is reported as ≤ 0.2. With MSCV the “one-hybrid fitness for binding NBS DNA” value was ≤ 0.2. RFEQ was tested, and the “one-hybrid fitness for binding NBS DNA” value was ≤ 0.2. With ADGS the “one-hybrid fitness for binding NBS DNA” value was ≤ 0.2. With WASV the “one-hybrid fitness for binding NBS DNA” value was ≤ 0.2. For CVKT, the “one-hybrid fitness for binding NBS DNA” value was ≤ 0.2. With NDMW the “one-hybrid fitness for binding NBS DNA” value was ≤ 0.2. With QPMG the “one-hybrid fitness for binding NBS DNA” value was ≤ 0.2. With HIKC the “one-hybrid fitness for binding NBS DNA” value was ≤ 0.2. With VNTA the “one-hybrid fitness for binding NBS DNA” value was ≤ 0.2. For EFCR, the “one-hybrid fitness for binding NBS DNA” value was ≤ 0.2. For RKKH, the “one-hybrid fitness for binding NBS DNA” value was 0.465. For YRSF, the “one-hybrid fitness for binding NBS DNA” value was ≤ 0.2. For AIPR, the “one-hybrid fitness for binding NBS DNA” value was ≤ 0.2. In the case of WSAG, the “one-hybrid fitness for binding NBS DNA” value is reported as ≤ 0.2. With GRHC the “one-hybrid fitness for binding NBS DNA” value was ≤ 0.2. CWDS was tested, and the “one-hybrid fitness for binding NBS DNA” value was ≤ 0.2. For VQSA, the “one-hybrid fitness for binding NBS DNA” value was ≤ 0.2. For QTEH, the “one-hybrid fitness for binding NBS DNA” value was ≤ 0.2. With ALHY the “one-hybrid fitness for binding NBS DNA” value was ≤ 0.2. In the case of ISTH, the “one-hybrid fitness for binding NBS DNA” value is reported as ≤ 0.2. With FLAS the “one-hybrid fitness for binding NBS DNA” value was ≤ 0.2. For STRL, the “one-hybrid fitness for binding NBS DNA” value was ≤ 0.2. In the case of VIRS, the “one-hybrid fitness for binding NBS DNA” value is reported as ≤ 0.2. KHAA was tested, and the “one-hybrid fitness for binding NBS DNA” value was ≤ 0.2. For QDSR, the “one-hybrid fitness for binding NBS DNA” value was 0.207. With QLCK the “one-hybrid fitness for binding NBS DNA” value was ≤ 0.2. In the case of AAVN, the “one-hybrid fitness for binding NBS DNA” value is reported as ≤ 0.2. NRYK was tested, and the “one-hybrid fitness for binding NBS DNA” value was ≤ 0.2. VSSS was tested, and the “one-hybrid fitness for binding NBS DNA” value was ≤ 0.2. For ILQF, the “one-hybrid fitness for binding NBS DNA” value was ≤ 0.2. TGET was tested, and the “one-hybrid fitness for binding NBS DNA” value was ≤ 0.2. For RQST, the “one-hybrid fitness for binding NBS DNA” value was 0.474. EYIG was tested, and the “one-hybrid fitness for binding NBS DNA” value was ≤ 0.2. GMES was tested, and the “one-hybrid fitness for binding NBS DNA” value was ≤ 0.2. For AVAR, the “one-hybrid fitness for binding NBS DNA” value was ≤ 0.2. With SYGK the “one-hybrid fitness for binding NBS DNA” value was ≤ 0.2. In the case of KDMM, the “one-hybrid fitness for binding NBS DNA” value is reported as ≤ 0.2. In the case of LMTM, the “one-hybrid fitness for binding NBS DNA” value is reported as ≤ 0.2. For GTDD, the “one-hybrid fitness for binding NBS DNA” value was ≤ 0.2. YADR was tested, and the “one-hybrid fitness for binding NBS DNA” value was ≤ 0.2. In the case of GVGV, the “one-hybrid fitness for binding NBS DNA” value is reported as ≤ 0.2. In the case of HYES, the “one-hybrid fitness for binding NBS DNA” value is reported as ≤ 0.2. ENQT was tested, and the “one-hybrid fitness for binding NBS DNA” value was ≤ 0.2. In the case of CTTY, the “one-hybrid fitness for binding NBS DNA” value is reported as ≤ 0.2. For GQWY, the “one-hybrid fitness for binding NBS DNA” value was ≤ 0.2. EMMI was tested, and the “one-hybrid fitness for binding NBS DNA” value was ≤ 0.2. For WSVG, the “one-hybrid fitness for binding NBS DNA” value was ≤ 0.2. For QRRC, the “one-hybrid fitness for binding NBS DNA” value was 0.489. For LMDR, the “one-hybrid fitness for binding NBS DNA” value was ≤ 0.2. YKFS was tested, and the “one-hybrid fitness for binding NBS DNA” value was ≤ 0.2. For PHRL, the “one-hybrid fitness for binding NBS DNA” value was ≤ 0.2. With TISM the “one-hybrid fitness for binding NBS DNA” value was ≤ 0.2. In the case of RFIC, the “one-hybrid fitness for binding NBS DNA” value is reported as ≤ 0.2. In the case of YTDE, the “one-hybrid fitness for binding NBS DNA” value is reported as ≤ 0.2. With PDVA the “one-hybrid fitness for binding NBS DNA” value was ≤ 0.2. VRIS was tested, and the “one-hybrid fitness for binding NBS DNA” value was ≤ 0.2. With RHDS the “one-hybrid fitness for binding NBS DNA” value was ≤ 0.2. For KTGS, the “one-hybrid fitness for binding NBS DNA” value was ≤ 0.2. RWWF was tested, and the “one-hybrid fitness for binding NBS DNA” value was ≤ 0.2. With SDSK the “one-hybrid fitness for binding NBS DNA” value was ≤ 0.2. With VYPM the “one-hybrid fitness for binding NBS DNA” value was ≤ 0.2. For TWER, the “one-hybrid fitness for binding NBS DNA” value was ≤ 0.2. GEDT was tested, and the “one-hybrid fitness for binding NBS DNA” value was ≤ 0.2. In the case of HGPE, the “one-hybrid fitness for binding NBS DNA” value is reported as ≤ 0.2. For NYYT, the “one-hybrid fitness for binding NBS DNA” value was ≤ 0.2. For NSAK, the “one-hybrid fitness for binding NBS DNA” value was ≤ 0.2. TAWA was tested, and the “one-hybrid fitness for binding NBS DNA” value was ≤ 0.2. For WSYR, the “one-hybrid fitness for binding NBS DNA” value was ≤ 0.2. SAME was tested, and the “one-hybrid fitness for binding NBS DNA” value was ≤ 0.2. With HDSE the “one-hybrid fitness for binding NBS DNA” value was ≤ 0.2.
